A lower IC50 marks a more sensitive line; fits outside the tested doses are given as limits. The AUC spans the tested range (256-fold, ending at the top dose) of the same fit; values near 1 show little effect. Where the top dose is marked as inferred, it was derived from the fitted curves, not read from the paper.
What was measured:
Experiment in all cases: Viability of human cancer cell lines after 72 h of drug (GDSC screen)
[1] = compound: CC(C)(C)OC(=O)Nc1ccc(-c2cc(C(=O)NCCCCCCC(=O)NO)no2)cc1 [CAY10603]; settings: top dose 20 µM; top dose inferred
Protocol: (§1)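 Human cancer cell lines in 384-well plates, medium with 10% serum, drug for 72 h over a 256-fold dose range (nine 2-fold or five 4-fold steps up to the top dose). Adherent lines were fixed and stained with the nucleic acid dye Syto60, suspension lines read with resazurin; signal relative to control wells, capped at 0 and 100%. One two-parameter sigmoid per drug and line, fitted in a mixed model over all curves with the slope shared within a line.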

[2] = compound: CCc1cc2c(cc1N1CCC(N3CCOCC3)CC1)C(C)(C)c1[nH]c3cc(C#N)ccc3c1C2=O [CH5424802]; settings: top dose 5.12 µM; top dose inferred
Protocol: as §1

[3] = compound: N#Cc1c(C2CCNCC2)cc(-c2c(O)cccc2OCC2CC2)nc1N [ACHP (KIN001-260)]; settings: top dose 20 µM; top dose inferred
Protocol: as §1

| Cell Line | AUC [1] | IC50 [1] [µM] | AUC [2] | IC50 [2] [µM] | AUC [3] | IC50 [3] [µM] |
| --- | --- | --- | --- | --- | --- | --- |
| LC-2-ad (lung adenocarcinoma, adherent) | 0.365 | 0.526 | 0.943 | > 5.12 | 0.941 | > 20 |
| LCLC-103H (large cell lung carcinoma, adherent) | 0.611 | 2.45 | 0.989 | > 5.12 | 0.906 | > 20 |
| LN-405 (glioma, adherent) | 0.623 | 2.98 | 0.973 | > 5.12 | 0.966 | > 20 |
| LNZTA3WT4 (glioma, adherent) | 0.794 | 9.02 | 0.987 | > 5.12 | 0.968 | > 20 |
| LOUCY (T-cell lymphoblastic leukaemia, suspension) | 0.184 | 0.182 | 0.875 | 3.49 | 0.919 | > 20 |
| LS-411N (large intestine, adherent) | 0.324 | 0.359 | 0.824 | 3.98 | 0.952 | > 20 |
| LU-99A (large cell lung carcinoma, adherent) | 0.683 | 4.04 | 0.987 | > 5.12 | 0.979 | > 20 |
| LU-134-A (small cell lung carcinoma, suspension) | 0.522 | 1.44 | 0.982 | > 5.12 | 0.987 | > 20 |
| LU-135 (small cell lung carcinoma, suspension) | 0.186 | 0.18 | 0.952 | > 5.12 | 0.954 | > 20 |
| LU-139 (small cell lung carcinoma, suspension) | 0.44 | 0.817 | 0.923 | > 5.12 | 0.887 | > 20 |
| LU-165 (small cell lung carcinoma, suspension) | 0.634 | 3.09 | 0.986 | > 5.12 | 0.931 | > 20 |
| M14 (melanoma, adherent) | 0.671 | 3.85 | 0.986 | > 5.12 | 0.95 | > 20 |
| MC116 (B-cell lymphoma, suspension) | 0.277 | 0.362 | 0.999 | > 5.12 | 0.991 | > 20 |
| MC-IXC (neuroblastoma, adherent) | 0.34 | 0.51 | 0.996 | > 5.12 | 0.996 | > 20 |
| MCF7 (breast, adherent) | 0.808 | 10.8 | 0.985 | > 5.12 | 0.986 | > 20 |
| MDA-MB-157 (breast, adherent) | 0.612 | 2.55 | 0.986 | > 5.12 | 0.988 | > 20 |
| MDA-MB-231 (breast, adherent) | 0.696 | 4.61 | 0.856 | 4.55 | 0.986 | > 20 |
| MDA-MB-361 (breast, adherent) | 0.539 | 1.6 | 0.989 | > 5.12 | 0.98 | > 20 |
| MDA-MB-436 (breast, adherent) | 0.722 | 6.39 | 0.951 | > 5.12 | 0.962 | > 20 |
| MDA-MB-453 (breast, adherent) | 0.336 | 0.414 | 0.956 | > 5.12 | 0.973 | > 20 |
| ME-1 (acute myeloid leukaemia, suspension) | 0.45 | 0.903 | 0.989 | > 5.12 | 0.975 | > 20 |
| ME-180 (cervix, adherent) | 0.568 | 1.93 | 0.977 | > 5.12 | 0.971 | > 20 |
| MEG-01 (chronic myeloid leukaemia, suspension) | 0.524 | 1.45 | 0.956 | > 5.12 | 0.886 | 19.9 |
| MEL-JUSO (melanoma, adherent) | 0.449 | 0.893 | 0.959 | > 5.12 | 0.943 | > 20 |

| Cell Line | AUC [1] | IC50 [1] [µM] | AUC [2] | IC50 [2] [µM] | AUC [3] | IC50 [3] [µM] |
| --- | --- | --- | --- | --- | --- | --- |
| MFH-ino (soft tissue, adherent) | 0.639 | 3.25 | 0.982 | > 5.12 | 0.982 | > 20 |
| MG-63 (osteosarcoma, adherent) | 0.982 | > 20 | 0.984 | > 5.12 | 0.981 | > 20 |
| MHH-NB-11 (neuroblastoma, adherent) | 0.452 | 0.911 | 0.966 | > 5.12 | 0.922 | > 20 |
| MHH-PREB-1 (B-cell leukaemia, suspension) | 0.236 | 0.239 | 0.989 | > 5.12 | 0.844 | 12.1 |
| MIA-PaCa-2 (pancreas, adherent) | 0.728 | 6 | 0.985 | > 5.12 | 0.984 | > 20 |
| MKN1 (stomach, adherent) | 0.646 | 3.24 | 0.984 | > 5.12 | 0.975 | > 20 |
| MKN45 (stomach, adherent) | 0.891 | > 20 | 0.981 | > 5.12 | 0.978 | > 20 |
| ML-1 (thyroid, adherent) | 0.447 | 0.875 | 0.98 | > 5.12 | 0.977 | > 20 |
| ML-2 (acute myeloid leukaemia, suspension) | 0.511 | 1.34 | 0.963 | > 5.12 | 0.865 | 14.5 |
| MOLM-13 (acute myeloid leukaemia, suspension) | 0.364 | 0.539 | 0.438 | 0.219 | 0.622 | 2.64 |
| MOLP-8 (myeloma, suspension) | 0.185 | 0.15 | 0.868 | 4.37 | 0.817 | 10.7 |
| MOLT-4 (lymphoblastic leukaemia, suspension) | 0.262 | 0.306 | 0.855 | 2.95 | 0.969 | > 20 |
| MOLT-13 (T-cell lymphoblastic leukaemia, suspension) | 0.154 | 0.13 | 0.953 | > 5.12 | 0.931 | > 20 |
| MONO-MAC-6 (acute myeloid leukaemia, suspension) | 0.466 | 1 | 0.938 | > 5.12 | 0.807 | 11 |
| MPP-89 (mesothelioma, adherent) | 0.315 | 0.321 | 0.98 | > 5.12 | 0.971 | > 20 |
| MRK-nu-1 (breast, suspension) | 0.661 | 3.37 | 0.99 | > 5.12 | 0.92 | > 20 |
| MS751 (cervix, adherent) | 0.813 | 9.76 | 0.988 | > 5.12 | 0.989 | > 20 |
| MS-1 (small cell lung carcinoma, suspension) | 0.293 | 0.351 | 0.969 | > 5.12 | 0.963 | > 20 |
| MY-M12 (leukaemia, suspension) | 0.211 | 0.154 | 0.664 | 0.976 | 0.931 | > 20 |
| MZ7-mel (melanoma, adherent) | 0.328 | 0.406 | 0.981 | > 5.12 | 0.878 | > 20 |
| Mewo (melanoma, adherent) | 0.659 | 3.78 | 0.977 | > 5.12 | 0.984 | > 20 |
| NB12 (neuroblastoma, adherent) | 0.238 | 0.164 | 0.864 | > 5.12 | 0.979 | > 20 |
| NB17 (neuroblastoma, adherent) | 0.637 | 3.17 | 0.708 | 1.36 | 0.972 | > 20 |
| NCI-H23 (lung adenocarcinoma, adherent) | 0.601 | 2.36 | 0.959 | > 5.12 | 0.988 | > 20 |

| Cell Line | AUC [1] | IC50 [1] [µM] | AUC [2] | IC50 [2] [µM] | AUC [3] | IC50 [3] [µM] |
| --- | --- | --- | --- | --- | --- | --- |
| NCI-H64 (small cell lung carcinoma, suspension) | 0.413 | 0.768 | 0.996 | > 5.12 | 0.901 | 14 |
| NCI-H69 (small cell lung carcinoma, suspension) | 0.622 | 2.82 | 0.984 | > 5.12 | 0.983 | > 20 |
| NCI-H187 (small cell lung carcinoma, suspension) | 0.442 | 0.855 | 0.981 | > 5.12 | 0.951 | > 20 |
| NCI-H209 (small cell lung carcinoma, suspension) | 0.973 | > 20 | 0.919 | > 5.12 | 0.951 | > 20 |
| NCI-H211 (small cell lung carcinoma, adherent) | 0.302 | 0.354 | 0.97 | > 5.12 | 0.781 | 8.04 |
| NCI-H322M (lung adenocarcinoma, suspension) | 0.679 | 4.48 | 0.978 | > 5.12 | 0.965 | > 20 |
| NCI-H358 (lung adenocarcinoma, adherent) | 0.433 | 0.802 | 0.943 | > 5.12 | 0.945 | > 20 |
| NCI-H510A (small cell lung carcinoma, semi-adherent) | 0.435 | 0.842 | 0.99 | > 5.12 | 0.97 | > 20 |
| NCI-H520 (lung squamous cell carcinoma, adherent) | 0.413 | 0.714 | 0.977 | > 5.12 | 0.875 | > 20 |
| NCI-H522 (lung adenocarcinoma, adherent) | 0.45 | 0.89 | 0.978 | > 5.12 | 0.968 | > 20 |
| NCI-H526 (small cell lung carcinoma, suspension) | 0.599 | 2.31 | 0.939 | > 5.12 | 0.919 | > 20 |
| NCI-H596 (lung adenocarcinoma, adherent) | 0.563 | 1.96 | 0.959 | > 5.12 | 0.98 | > 20 |
| NCI-H647 (non-small cell lung carcinoma, adherent) | 0.58 | 2.09 | 0.938 | > 5.12 | 0.922 | > 20 |
| NCI-H661 (large cell lung carcinoma, adherent) | 0.456 | 0.926 | 0.969 | > 5.12 | 0.982 | > 20 |
| NCI-H727 (lung carcinoid, adherent) | 0.882 | > 20 | 0.969 | > 5.12 | 0.964 | > 20 |
| NCI-H748 (small cell lung carcinoma, suspension) | 0.356 | 0.444 | 0.974 | > 5.12 | 0.929 | > 20 |
| NCI-H838 (lung adenocarcinoma, adherent) | 0.567 | 1.92 | 0.983 | > 5.12 | 0.971 | > 20 |
| NCI-H1048 (small cell lung carcinoma, adherent) | 0.628 | 2.7 | 0.987 | > 5.12 | 0.924 | > 20 |
| NCI-H1092 (small cell lung carcinoma, suspension) | 0.521 | 1.43 | 0.98 | > 5.12 | 0.975 | > 20 |
| NCI-H1299 (large cell lung carcinoma, adherent) | 0.802 | 12.5 | 0.971 | > 5.12 | 0.957 | > 20 |
| NCI-H1417 (small cell lung carcinoma, suspension) | 0.458 | 0.939 | 0.911 | > 5.12 | 0.958 | > 20 |
| NCI-H1435 (lung adenocarcinoma, semi-adherent) | 0.71 | 4.52 | 0.993 | > 5.12 | 0.985 | > 20 |
